Laboratory results taken from PMC8665361.
Results are given in words; binding and its absence hold for the method and conditions named. In cells and extracts the contact can be indirect. Some binding calls cover weakened binding; strength is not graded here. For some assays here: Where a sequence is shown, tags or fusion partners need not be part of it. Values belong to the substance of their own block, whether it stands above or below them.

Sequences of proteins named here, by UniProt entry; tags and fusion partners are left off. A change or cut given only in a name is not applied to a line headed by its entry.
UniProt Q14790: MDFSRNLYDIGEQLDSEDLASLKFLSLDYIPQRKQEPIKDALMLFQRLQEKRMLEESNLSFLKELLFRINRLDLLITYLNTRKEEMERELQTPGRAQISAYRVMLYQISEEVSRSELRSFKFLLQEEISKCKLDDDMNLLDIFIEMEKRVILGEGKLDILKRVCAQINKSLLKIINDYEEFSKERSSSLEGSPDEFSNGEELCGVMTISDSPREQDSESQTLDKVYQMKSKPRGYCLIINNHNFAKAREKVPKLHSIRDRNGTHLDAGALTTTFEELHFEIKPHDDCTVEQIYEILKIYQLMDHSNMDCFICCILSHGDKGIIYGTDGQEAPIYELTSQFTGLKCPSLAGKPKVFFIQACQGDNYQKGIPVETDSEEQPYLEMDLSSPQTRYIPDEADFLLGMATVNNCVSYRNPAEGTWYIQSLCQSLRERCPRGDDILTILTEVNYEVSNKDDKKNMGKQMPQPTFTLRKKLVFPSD
UniProt P98177: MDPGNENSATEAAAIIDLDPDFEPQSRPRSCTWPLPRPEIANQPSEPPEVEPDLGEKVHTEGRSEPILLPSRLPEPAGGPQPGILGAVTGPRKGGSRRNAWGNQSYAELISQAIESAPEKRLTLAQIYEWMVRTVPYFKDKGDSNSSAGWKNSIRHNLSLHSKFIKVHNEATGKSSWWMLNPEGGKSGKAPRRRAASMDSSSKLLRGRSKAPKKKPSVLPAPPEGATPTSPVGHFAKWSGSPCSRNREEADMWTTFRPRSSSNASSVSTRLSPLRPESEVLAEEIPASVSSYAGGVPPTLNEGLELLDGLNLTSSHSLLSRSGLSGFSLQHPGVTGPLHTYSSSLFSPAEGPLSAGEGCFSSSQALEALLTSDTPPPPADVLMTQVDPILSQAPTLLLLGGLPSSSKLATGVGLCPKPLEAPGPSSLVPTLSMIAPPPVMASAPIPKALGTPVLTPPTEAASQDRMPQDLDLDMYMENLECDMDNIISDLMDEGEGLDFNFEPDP

How the values were obtained:
[1] = molecular target: HA-caspase 8-C360S (UniProt Q14790); assay: co-IP; HEK293 cells transfected 24 h with HA-caspase 8-C360S and/or FLAG-FOXO4; IP with anti-HA, blot with indicated antibodies
[2] = molecular target: T1, endogenous FBXO7 (HEK293 cells) (human (endogenous in HEK293)) (UniProt Q9Y3I1); assay: co-IP; HEK293 cells transfected 24 h with FLAG- or HA-tagged catalytically inactive caspases; endogenous FBXO7; text: IP with anti-FLAG or anti-HA and blot with anti-FBXO7; legend: IP with anti-FBXO7
T1 sequence: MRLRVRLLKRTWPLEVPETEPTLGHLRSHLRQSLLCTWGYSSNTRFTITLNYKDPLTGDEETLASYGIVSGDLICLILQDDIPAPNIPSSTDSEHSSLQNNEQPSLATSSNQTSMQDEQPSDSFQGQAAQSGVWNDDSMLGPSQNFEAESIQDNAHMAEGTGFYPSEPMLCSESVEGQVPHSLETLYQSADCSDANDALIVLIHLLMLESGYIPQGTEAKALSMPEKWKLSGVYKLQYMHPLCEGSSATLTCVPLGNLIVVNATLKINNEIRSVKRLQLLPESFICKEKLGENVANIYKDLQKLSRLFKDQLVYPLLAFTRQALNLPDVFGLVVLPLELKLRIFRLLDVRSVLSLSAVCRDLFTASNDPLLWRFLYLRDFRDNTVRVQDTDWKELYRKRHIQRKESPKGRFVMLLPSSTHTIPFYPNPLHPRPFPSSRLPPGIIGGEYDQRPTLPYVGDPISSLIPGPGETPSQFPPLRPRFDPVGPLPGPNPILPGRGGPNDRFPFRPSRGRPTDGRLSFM

[3] = molecular target: T2, FLAG-tagged FBXO7 deletion mutant lacking the C-terminal region spanning amino acids 376-522 (human) (UniProt Q9Y3I1); assay: co-IP; HEK293 cells transfected with caspase 8-V5/His and FLAG-FBXO7-WT or a deletion mutant; IP with anti-FLAG, blot with anti-V5; Fig. S3B
T2 sequence: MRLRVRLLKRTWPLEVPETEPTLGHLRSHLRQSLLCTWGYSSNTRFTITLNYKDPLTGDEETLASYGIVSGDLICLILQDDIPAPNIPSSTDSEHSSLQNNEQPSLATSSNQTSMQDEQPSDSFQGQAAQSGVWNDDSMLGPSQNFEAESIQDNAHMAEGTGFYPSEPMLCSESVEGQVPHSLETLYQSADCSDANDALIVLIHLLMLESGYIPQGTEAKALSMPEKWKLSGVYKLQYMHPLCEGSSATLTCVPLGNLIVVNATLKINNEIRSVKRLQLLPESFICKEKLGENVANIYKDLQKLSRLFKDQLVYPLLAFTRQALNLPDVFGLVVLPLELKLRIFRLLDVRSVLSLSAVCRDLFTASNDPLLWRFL

[4] = molecular target: T3, FLAG-tagged FBXO7 deletion mutant lacking the N-terminal region of amino acid 1-333 (human) (UniProt Q9Y3I1); assay: as above
T3 sequence: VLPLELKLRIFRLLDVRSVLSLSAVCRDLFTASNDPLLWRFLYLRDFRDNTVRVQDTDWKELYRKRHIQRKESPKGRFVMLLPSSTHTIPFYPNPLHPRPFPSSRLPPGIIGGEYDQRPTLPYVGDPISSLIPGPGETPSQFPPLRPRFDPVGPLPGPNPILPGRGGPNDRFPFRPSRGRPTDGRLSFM

[5] = molecular target: T4, FLAG-tagged human wild-type FBXO7 isoform-1 (human) (UniProt Q9Y3I1); assay: as above
T4 sequence: T1 sequence

binding [1]: binds
Substance: FLAG-tagged human FOXO4 (from UniProt P98177 1-505)

binding [2]: binds
Substance: HA-caspase 8-C360S (from UniProt Q14790 1-479) (enzyme)

binding [3]: binds | binding [4]: no binding | binding [5]: binds
Substance: caspase 8-V5/His (from UniProt Q14790 1-479) (enzyme)
